{"source": "PubChem BioAssay AID485344", "about": "(National Center for Advancing Translational Sciences (NCATS), 2010)", "note": "Screen size: about 340,000 compounds; about 6,900 (2%) were called active. No stated cut-off is given here; in the data, active means inhibition above about 30%; inactive means below that, where a call was filed. Only a part is listed here, and it is no random draw. Entries without a call were filed so in the source.", "data": [{"target": "D(2) dopamine receptor (Homo sapiens) (UniProt P14416)", "sequence (P14416 whole entry, looked up)": "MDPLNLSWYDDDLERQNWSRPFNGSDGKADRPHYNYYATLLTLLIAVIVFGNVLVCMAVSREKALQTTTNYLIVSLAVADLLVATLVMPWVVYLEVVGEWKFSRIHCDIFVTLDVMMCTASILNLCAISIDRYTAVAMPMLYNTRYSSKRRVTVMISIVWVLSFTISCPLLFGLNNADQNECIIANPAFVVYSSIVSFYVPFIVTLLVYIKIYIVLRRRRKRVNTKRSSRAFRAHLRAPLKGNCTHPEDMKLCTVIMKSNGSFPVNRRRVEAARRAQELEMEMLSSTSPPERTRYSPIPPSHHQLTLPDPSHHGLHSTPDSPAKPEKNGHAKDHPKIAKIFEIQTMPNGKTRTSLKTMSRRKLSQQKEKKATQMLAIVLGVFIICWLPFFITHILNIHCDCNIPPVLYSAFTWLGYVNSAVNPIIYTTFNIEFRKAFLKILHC", "assay": "HTS Assay for Allosteric Antagonists of the Human D2 Dopamine Receptor: Primary Screen for Antagonists; further: 0% is about no effect", "details": "HEK293 TREx D2 cells, calcium flux, dopamine EC80; at 10 µM; stronger effect = higher value", "procedure,_shortened": "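Tetracycline-induced HEK293 T-REx cells expressing D2 force-coupled to calcium signalling were dye-loaded, exposed to compound for 180 s, then challenged with an EC80 of dopamine; calcium flux was followed kinetically for a further 180 s.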", "values": [{"smiles": "COc1ccc(NC(=S)N2CCN(C(=O)c3ccco3)CC2)cc1", "inhibition": "active: 32.3%"}, {"smiles": "CCOC(=O)c1ccccc1NC(=O)CN(c1ccccc1OC)S(=O)(=O)c1ccc(C)cc1", "inhibition": "9.55%"}, {"smiles": "COc1ccccc1NC(=O)CSc1nc2c(oc3ccccc32)c(=O)n1-c1ccc(C)cc1", "inhibition": "-11.6%"}, {"smiles": "CCOC(=O)N1CCc2c(sc3c2c(=O)n(-c2ccc(Cl)cc2)c(=O)n3CC(=O)c2ccc(F)cc2)C1", "inhibition": "-9.83%"}, {"smiles": "COc1ccc(NS(=O)(=O)c2nnc(NC(=O)c3ccccc3F)s2)cc1", "inhibition": "11.2%"}, {"smiles": "COc1cccc(OC)c1OCCOCCN1CCN(C)CC1", "inhibition": "active: 68.4%"}, {"smiles": "CSc1ccc(CNC(=O)CCn2ccc3cc(S(=O)(=O)N4CCCC4)ccc32)cc1", "inhibition": "-10.7%"}, {"smiles": "COc1ccc(NC(=O)CC2SC(N3CCOCC3)=NC2=O)cc1OC", "note": "(stereo unspecified)", "inhibition": "active: 72.8%"}, {"smiles": "CCOc1ccc(NC(=O)Cn2c(C)ccc(C#N)c2=O)cc1", "inhibition": "-23.6%"}, {"smiles": "CCc1nnc2c3ccccc3nc(N3CCN(c4ccc(C)cc4C)CC3)n12", "inhibition": "-6.67%"}, {"smiles": "COc1ccccc1CNC(=O)c1ccc(C)c(-n2cnc3cccnc32)c1", "inhibition": "5.81%"}, {"smiles": "O=C(NC1CCN(S(=O)(=O)c2ccccc2C(F)(F)F)CC1)c1ccco1", "inhibition": "active: 30.3%"}, {"smiles": "CCCN1C(=O)C(NC(=O)c2ccccc2OC)(C(F)(F)F)C(C(=O)OC)=C1C", "note": "(stereo unspecified)", "inhibition": "3.33%"}, {"smiles": "Cc1ccc(C)c(NC(=O)CSc2cn(CC(=O)N3CCCC3)c3ccccc23)c1", "inhibition": "23.9%"}, {"smiles": "CCOc1ccc(NC(=O)Cc2csc(COc3cccc(C)c3)n2)cc1", "inhibition": "-4.57%"}, {"smiles": "CCCCN1CCc2c1nc1ccc(Br)cc1c2N", "inhibition": "active: 67.9%"}, {"smiles": "CCOc1ccccc1C1C(C(=O)Nc2ccccc2OC)=C(C)Nc2nc3ccccc3n21", "note": "(stereo unspecified)", "inhibition": "-2.26%"}, {"smiles": "Cc1ccc2nc(NC(=O)c3cc(=O)c4cc(C)c(C)cc4o3)sc2c1", "inhibition": "9.9%"}, {"smiles": "Cc1cc(C)cc(NC(=O)NCCn2nnc3cc(S(=O)(=O)N(C)C)ccc32)c1", "inhibition": "0.321%"}, {"smiles": "CCOc1ccc(C(=O)OCc2cc(=O)n3nc(C4CCCCC4)sc3n2)cc1", "inhibition": "7.28%"}, {"smiles": "CSc1ncc(Cl)c(C(=O)N(Cc2ccccc2Cl)C2CCS(=O)(=O)C2)n1", "note": "(stereo unspecified)", "inhibition": "-2.93%"}, {"smiles": "CCC(=O)Nc1nnc(S(=O)(=O)N(C)Cc2ccccc2)s1", "inhibition": "6.49%"}, {"smiles": "COc1cccc(NC(=O)Cn2c(=O)n(-c3ccc(CC(=O)NCC4CCCO4)cc3)c(=O)c3ccccc32)c1", "note": "(stereo unspecified)", "inhibition": "19.2%"}, {"smiles": "CCOc1ccccc1NC(=O)c1cccc2c1C(=O)N(C1CCCCC1)C2", "inhibition": "5.77%"}, {"smiles": "CCCCn1c(-c2ccc(S(=O)(=O)N3CCOCC3)cc2)csc1=Nc1ccccc1", "inhibition": "2.43%"}, {"smiles": "COc1ccc(C(=O)Nc2cc(C(F)(F)F)ccc2N2CCN(c3ccccc3)CC2)cc1OC", "inhibition": "2.4%"}, {"smiles": "Cc1cccc(Cn2c(CN3CCC(C(=O)NCCc4ccccc4)CC3)cc3ccccc32)c1", "inhibition": "21.1%"}, {"smiles": "Cc1c(C(=O)Nc2ccccc2Br)oc2ccc(S(=O)(=O)N3CCCCC3)cc12", "inhibition": "12%"}, {"smiles": "CCN(c1cccc(C)c1)S(=O)(=O)c1nnc(NC(=O)c2cccs2)s1", "inhibition": "8.72%"}, {"smiles": "COc1ccc(-c2c(C)nn3c4c(cnc23)C(=O)CC(c2ccc(C)cc2)C4)cc1", "note": "(stereo unspecified)", "inhibition": "11.3%"}, {"smiles": "Cc1sc2ncn(CC(=O)Nc3cccc(C(F)(F)F)c3)c(=O)c2c1S(=O)(=O)N1CCC(C)CC1", "inhibition": "9.68%"}, {"smiles": "O=C(Nc1cc(-c2ccccc2)cs1)c1ccco1", "inhibition": "active: 31.3%"}, {"smiles": "CCOC(=O)C1=C(CN2CCN(c3ccccc3)CC2)NC(=O)NC1c1ccc(C)cc1", "note": "(stereo unspecified)", "inhibition": "5.52%"}, {"smiles": "COc1ccc(C2c3c(-c4ccccc4O)n[nH]c3C(=O)N2Cc2ccco2)cc1", "note": "(stereo unspecified)", "inhibition": "-4.93%"}, {"smiles": "O=C(Nc1ccccc1C(=O)OCc1cc(=O)n2nc(C3CC3)sc2n1)c1cccc(Cl)c1", "inhibition": "7.27%"}, {"smiles": "Cc1ccc(Cl)cc1NC(=O)Cn1c(=O)c(CNc2ccccc2)cc2cc3c(cc21)OCCO3", "inhibition": "3.19%"}, {"smiles": "COCCn1c(SCC(=O)Nc2ccc(F)c(Cl)c2)nc2c(oc3ccccc32)c1=O", "inhibition": "-0.173%"}, {"smiles": "O=C(CN1CCc2ccccc2C1)Nc1cc(S(=O)(=O)N2CCOCC2)ccc1N1CCCC1", "inhibition": "active: 83.2%"}, {"smiles": "COc1ccc(C(=O)NCCc2sc(-c3cccc(F)c3)nc2C)cc1", "inhibition": "-13.3%"}, {"smiles": "CC(=O)NC1=NN(C(C)=O)C(C)(CS(=O)(=O)c2ccc3ccccc3c2)S1", "note": "(stereo unspecified)", "inhibition": "active: 39.1%"}, {"smiles": "Cc1ccccc1NS(=O)(=O)c1ccc2[nH]cc(C(=O)N3CCCC3)c(=O)c2c1", "inhibition": "-9.35%"}, {"smiles": "Cc1nc2ccn(Cc3cccnc3)c(=O)c2cc1C(=O)Nc1ccc(OC(F)(F)F)cc1", "inhibition": "-7.24%"}, {"smiles": "CCS(=O)(=O)c1ncc(N(Cc2ccco2)Cc2sccc2C)c(C(=O)Nc2cc(C)ccc2C)n1", "inhibition": "24.5%"}, {"smiles": "Cn1c(C(=O)NCc2ccc(F)cc2)cc2c(=O)n(C)c3ccccc3c21", "inhibition": "-8.47%"}, {"smiles": "CCCn1c(=O)c2sccc2n2c(CCCC(=O)N3CCN(c4ccccc4)CC3)nnc12", "inhibition": "4.17%"}, {"smiles": "COc1ccc(CCNC(=O)Cn2nnc(-c3ccc(C(F)(F)F)cc3)n2)cc1OC", "inhibition": "8.42%"}, {"smiles": "CCCC(=O)N1CC(=O)Nc2ccc(Cl)cc2C1c1ccc(F)cc1", "note": "(stereo unspecified)", "inhibition": "6.2%"}, {"smiles": "CC(=O)c1cccc(NC(=O)CCS(=O)(=O)c2cc(Br)cc3c2N(C(=O)C2CC2)CC3)c1", "inhibition": "-2.06%"}, {"smiles": "Cc1csc2nc(COC(=O)COc3ccccc3F)cc(=O)n12", "inhibition": "-1.32%"}, {"smiles": "O=C(Cc1ccc(NC(=O)N2CCSc3ncccc32)cc1)NCc1ccccc1Cl", "inhibition": "8.45%"}, {"smiles": "CCOc1ccc(S(=O)(=O)Nc2ccc3oc(C)c(C(=O)OCCOC)c3c2)cc1", "inhibition": "3.98%"}, {"smiles": "O=S(=O)(Nc1cccc(-c2ccc(N3CCCCC3)nn2)c1)c1cccs1", "inhibition": "-22.6%"}, {"smiles": "CC1CCc2nc(NC(=O)COc3ccc(C(C)(C)C)cc3)sc2C1", "note": "(stereo unspecified)", "inhibition": "-18.1%"}, {"smiles": "CCOC(=O)c1[nH]c2ccc(OCC)cc2c1NC(=O)CN1CCN(c2ccccn2)CC1", "inhibition": "active: 36.1%"}, {"smiles": "Cc1cccc(CCn2c(=O)c3ccccc3n(Cc3cccc(F)c3)c2=O)c1", "inhibition": "-26.9%"}, {"smiles": "COc1ccc(OC)c(C2CC(=O)c3c([nH]c(C(=O)OCC4CCCCC4)c3C)C2)c1", "note": "(stereo unspecified)", "inhibition": "-20.1%"}, {"smiles": "CN1CCN(C(c2ccccc2)c2sc3nc(-c4ccco4)nn3c2O)CC1", "note": "(stereo unspecified)", "inhibition": "-3.05%"}, {"smiles": "CCOC(=O)c1nnc2c(-c3ccc(OC)cc3)c(C)nn2c1N", "inhibition": "-8.58%"}, {"smiles": "COc1ccccc1NC(=O)n1ncc2c(C)cccc21", "inhibition": "-13.7%"}, {"smiles": "Cc1nc2c(C(=O)NCc3ccccc3Cl)cnn2c(C)c1Cc1c(F)cccc1Cl", "inhibition": "-13.5%"}, {"smiles": "COC(=O)c1ccc(NC(=O)C2CC(=O)OC2c2ccccc2)cc1", "note": "(stereo unspecified)", "inhibition": "active: 35.3%"}]}]}
